Data: PubChem BioAssay AID624171 (National Center for Advancing Translational Sciences (NCATS), 2012)
Screen size: about 410,000 compounds; about 1,200 (0.29%) were called active. Inconclusive results, whose numbers are uncertain, are shown with a selection of clear calls. Calls come from the whole dose curve; as a rule, active = well fitted activation curve with a large enough effect; inconclusive = small, poorly fitted or top-dose-only effect; inactive = flat fitted curve, though single readings scatter. Potencies of inconclusive entries are doubtful fits and often do not repeat.

Experiment: qHTS of Nrf2 Activators; note: nearly all actives have a fitted effect of over 65% in size
Conditions: AREc32 ARE-luciferase reporter (MCF7-derived line), luminescence, 24 h; series mostly up to 46.1 µM
Method in brief: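 Luminescent ARE reporter assay in AREc32_Fluc cells: overnight plating at 37 deg C, 24 hr compound incubation, Steady-Glo added, 30 min RT before reading.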
Potency is the fitted concentration of half-maximal effect; tags give direction and shape of the fitted curve.

SMILES | Potency
CCCS(=O)(=O)NCCc1sc2nc(-c3ccc(F)cc3)nn2c1C | inactive
COc1cccc(CNc2cc(C)nc3nc(-c4ccc(C)cc4)nn23)c1 | inactive
CC(C)(C)OC(=O)N[C@@H](Cc1ccccc1)c1nnc(SCC(=O)c2ccc(Cl)cc2)o1 | inactive
O=C(OCc1nnc(-c2ccccc2)o1)c1ccc(CO)cc1 | inactive
CCOC(=O)c1[nH]ncc1CN1CCN(Cc2ccccc2)C(CCO)C1 (stereo not drawn) | inactive
O=C(CCn1c2c(c3ccccc31)CCCC2)NNC(=O)c1ccc(Cl)c([N+](=O)[O-])c1 | inconclusive: 17.8 µM [activator, single point]
Cc1ccc(N=C2NC(=O)/C(=C/C=C/c3ccco3)S2)cc1C | inconclusive: 11.2 µM [activator, partial curve, poor fit]
COc1ccc(/C=N/Nc2ccc([N+](=O)[O-])cc2)cc1O | inactive
CCN1C(=O)C2(C(C#N)=C(N)Oc3c2c(C)nn3-c2ccccc2)c2ccccc21 (stereo not drawn) | inconclusive: 28.2 µM [activator, partial curve, poor fit]
c1nc(N2CCN(Cc3ccc4c(c3)OCO4)CC2)c2[nH]cnc2n1 | inactive
COCCNc1nc(NCCOc2ccccc2)c2sc(-c3ccccc3)cc2n1 | inactive
CCN(CC)C(=O)CN(C#N)c1nc(Cl)nc(N(C)C)n1 | inconclusive: 12.6 µM [activator, partial curve, poor fit]
Cc1cc(/C=C2/NC(=O)N(c3ccccc3)C2=O)c(C)n1-c1cccnc1 | inactive
O=C(Cc1nc2ccccc2[nH]c1=O)c1ccccc1 | inconclusive: 1.58 µM [activator, partial curve, poor fit]
CC(=O)n1c(Cl)c(NC(=O)CCl)c2ccccc21 | inconclusive: 17.8 µM [activator, single point]
O=C(CC(=O)c1ccncc1)c1ccccc1 | inconclusive: 11.2 µM [activator, partial curve, poor fit]
O=C(c1ccc(S(=O)(=O)Cc2cc(F)ccc2F)c([N+](=O)[O-])c1)N1CCCC1 | active: 8.91 µM
C/C1=C\CCC2C(/C=C(\C)CC1)OC(=O)C2CN1CCCCC1 (stereo not drawn) | inconclusive: 3.55 µM [activator, partial curve, poor fit]
Cc1cccc(-c2nnc(NC(=O)c3cccs3)s2)c1 | inconclusive: 0.891 µM [activator, full curve]
COc1cccc2c(SCC(=O)N/N=C/c3ccccc3)cc(C)nc12 | inconclusive: 22.4 µM [activator, single point]
CCOC(=O)/C=C(C)\C=C\c1c[nH]c2ccccc12 | inconclusive: 22.4 µM [activator, single point]
O=C(Nc1ccc(C(F)(F)F)cc1)c1ccccc1Br | inconclusive: 22.4 µM [activator, single point]
Cn1cccc1CC(=O)N/N=C/c1ccc(Cl)c([N+](=O)[O-])c1 | inconclusive: 20 µM [activator, single point]
NC(=O)c1ccsc1NC(=O)COC(=O)/C=C/c1ccccc1[N+](=O)[O-] | inconclusive: 11.2 µM [activator, partial curve, poor fit]

SMILES | Potency
N#C/C(=C1/CCCCCN1)c1nc2ccccc2[nH]1 | inconclusive: 5.62 µM [activator, partial curve]
CCCNC(=O)c1ccc(-n2c(-c3ccccc3)cc3c2CCC(C)C3)cc1 (stereo not drawn) | active: 11.2 µM
CCOc1ccccc1NC(=O)c1c(NCc2sccc2C)sc2c1CCCCC2 | inconclusive: 11.2 µM [activator, single point]
CN(C)c1cccc(C(=O)NNC(=O)NC2CCCCC2)c1 | inactive
O=C(/C=C/c1ccc(-c2ccccc2[N+](=O)[O-])o1)c1ccco1 | active: 10 µM
Cc1cc(C)c(S(=O)(=O)NCC(c2cccs2)S(=O)(=O)c2ccccc2)c(C)c1 (stereo not drawn) | inconclusive: 7.94 µM [activator, partial curve]
Cc1ccc(F)c(S(=O)(=O)NC(=O)C2(C)CCN2C(=O)c2ccc(C3CCCCC3)cc2)c1 (stereo not drawn) | inactive
Cn1nnnc1Sc1ncnc2scc(-c3cccc4ccccc34)c12 | active: 7.08 µM
COc1ccccc1-c1ccc(/C=C2\C=CC(=O)O2)o1 | active: 15.8 µM
CCOC(=O)c1sc2nc(-c3ccco3)c3c(c2c1N)CC(C)(C)OC3 | inconclusive: 14.1 µM [activator, single point]
CN(C)c1c2ccccc2nc2c(F)c(F)c(F)c(F)c12 | inconclusive: 25.1 µM [activator, single point]
O=C1/C(=C/c2ccc3c(c2)OCO3)CCC/C1=C\c1ccc2c(c1)OCO2 | inconclusive: 35.5 µM [activator, single point]
O=C1/C(=C\c2ccco2)CCC/C1=C\c1ccco1 | active: 10 µM
CCCCCC(=O)N(O)C1CC(=O)N(c2ccccc2)C1=O (stereo not drawn) | inactive
COc1cc(NC(=O)CSc2nc3[nH]ncc3c(=O)n2-c2ccccc2)cc(OC)c1OC | inconclusive: 22.4 µM [activator, single point]
CCN1CCCC1CNC(=O)CN(C)S(=O)(=O)c1ccc(Cl)cc1 (stereo not drawn) | inactive
O=[N+]([O-])c1cc(O)c2ncccc2c1 | inconclusive: 5.62 µM [activator, single point]
Cc1ccc(-n2nc3c(c2NC(=O)CC(C)C)CS(=O)C3)cc1 (stereo not drawn) | inactive
CN(Cc1cc(Cl)cc(Cl)c1)CC(C(=O)c1ccccc1)c1ccccc1 (stereo not drawn) | active: 11.2 µM
O=C(NC(=S)Nc1cccc(Cl)c1N1CCCC1)c1ccc(-c2cccc([N+](=O)[O-])c2)o1 | inconclusive: 12.6 µM [activator, partial curve]
COC(=O)c1ccccc1NC(=O)c1cccs1 | inconclusive: 7.08 µM [activator, full curve]
O=C(CCl)Nc1nc(-c2ccco2)c(-c2ccco2)s1 | active: 11.2 µM
c1ccc(-c2nc3cc4ccccc4cc3[nH]2)nc1 | inactive
CCc1ccc2oc(-c3cc(N)cc(C)c3O)nc2c1 | inconclusive: 17.8 µM [activator, partial curve, poor fit]
